Experimental data reported in paper PMC4336329 (PLoS ONE, 2015).
The campaign covered roughly 310,000 compounds. About 2,200 (0.71%) showed an effect of 50% or more. The effect is printed as a negative number. The list shows a part of the results.

target: human ether-à-go-go-related gene (hERG) potassium channel (human, UniProt Q12809); assay: primary screen, population patch clamp on CHO cells stably expressing hERG
Sequence (Q12809 whole entry, looked up): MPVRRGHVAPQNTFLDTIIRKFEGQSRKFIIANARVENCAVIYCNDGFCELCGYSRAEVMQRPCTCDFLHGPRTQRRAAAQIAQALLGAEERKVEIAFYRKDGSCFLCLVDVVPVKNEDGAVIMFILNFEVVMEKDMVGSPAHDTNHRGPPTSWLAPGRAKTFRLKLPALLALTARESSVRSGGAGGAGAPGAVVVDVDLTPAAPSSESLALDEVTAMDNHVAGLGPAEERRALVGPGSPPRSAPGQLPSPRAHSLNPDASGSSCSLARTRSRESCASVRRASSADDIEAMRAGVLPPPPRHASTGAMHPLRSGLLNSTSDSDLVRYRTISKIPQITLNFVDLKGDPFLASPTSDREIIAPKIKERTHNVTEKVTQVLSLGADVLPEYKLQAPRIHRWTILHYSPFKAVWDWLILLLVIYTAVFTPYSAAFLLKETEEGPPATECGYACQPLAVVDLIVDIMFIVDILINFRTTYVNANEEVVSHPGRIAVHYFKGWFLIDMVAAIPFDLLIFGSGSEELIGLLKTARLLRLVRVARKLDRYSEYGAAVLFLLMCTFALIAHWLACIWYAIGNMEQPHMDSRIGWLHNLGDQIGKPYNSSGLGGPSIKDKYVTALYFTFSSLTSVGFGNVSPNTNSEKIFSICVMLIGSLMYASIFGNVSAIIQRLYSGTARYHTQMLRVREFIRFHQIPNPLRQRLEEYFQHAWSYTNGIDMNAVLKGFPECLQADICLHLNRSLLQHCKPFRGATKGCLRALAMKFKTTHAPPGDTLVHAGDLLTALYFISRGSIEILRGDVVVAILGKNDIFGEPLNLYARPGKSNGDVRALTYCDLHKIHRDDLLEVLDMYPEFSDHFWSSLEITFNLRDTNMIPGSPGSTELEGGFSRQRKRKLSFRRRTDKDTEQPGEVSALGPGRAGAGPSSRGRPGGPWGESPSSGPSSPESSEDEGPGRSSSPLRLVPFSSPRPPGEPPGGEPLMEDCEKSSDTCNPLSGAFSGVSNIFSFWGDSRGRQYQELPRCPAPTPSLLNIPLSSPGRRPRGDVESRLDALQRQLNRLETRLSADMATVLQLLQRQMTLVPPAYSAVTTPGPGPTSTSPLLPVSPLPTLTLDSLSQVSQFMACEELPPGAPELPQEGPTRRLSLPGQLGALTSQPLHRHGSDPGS

| SMILES | hERG current change (%, negative = inhibition) at 1uM |
| --- | --- |
| O=Cc1cn(-c2ccccc2)nc1-c1ccc(F)cc1 | 11.3% |
| Cc1nnc(SCC(=O)NC2CCCC2)n1CCc1ccccc1 | -4.85% |
| NNC(=O)C(=O)/C=C1\NC2(CCCC2)Cc2ccccc21 | 12.2% |
| O=C(Nc1ccc(C(F)(F)F)cc1-c1ccccc1)c1ccccc1 | 7.34% |
| COCC(=O)NNC(=S)Nc1cccc(C)c1C | 17% |
| Cc1nc([N+](=O)[O-])cn1Cc1cccc([N+](=O)[O-])c1 | 6.16% |
| CC(C)NC(=O)NC(=O)COC(=O)Cc1c(F)cccc1Cl | 2.81% |
| CCCCNC(=O)c1onc(CSc2ccccc2C)c1C(=O)O | 16.7% |
| FC(F)(F)c1cc(-c2ccco2)nc(NCc2ccc(Cl)cc2)n1 | 17.2% |
| O=C(CSc1nc2ccc([N+](=O)[O-])cc2[nH]1)NC1CCCCCC1 | 5.07% |
| CCn1c(SCC(=O)O)nnc1-c1cc2c(C)nn(-c3ccccc3)c2s1 | -8.68% |
| O=c1ccc(NS(=O)(=O)c2ccccc2)cn1Cc1ccc(Cl)c(Cl)c1 | 12.1% |
| Cc1ccc(NC(=O)c2ccc(OCC3CCCO3)cc2)c(C)c1 (centres unmarked) | 4% |
| COc1ccc(CCN2C(=S)N(c3ccc(Cl)cc3)C(=O)C2CC(N)=O)cc1OC (centres unmarked) | 11.3% |
| CC(C)NS(=O)(=O)c1ccc(CCC(=O)N2CCCC2)cc1 | 15.7% |
| CN1/C(=C/C(=O)C2CC2)C(C)(C)c2ccccc21 | 11.5% |
| Cc1nn(Cc2noc(C(=O)NCc3ccccn3)n2)c(C)c1Br | 5.24% |
| CCCC(=O)Nc1ccc2c(c1)nc(CN1CCCC1)n2C | 17.9% |
| CCc1ccc2c(c1)c1nc(C)sc1n2CC(=O)OC | 16.1% |
| Cc1ccc(CNC(=O)CSc2ccc(-c3cccs3)nn2)cc1 | 11.4% |
| COc1ccccc1NC(=O)COc1ccc(/C=N/NS(=O)(=O)c2ccc(C)cc2)cc1 | 18% |
| CCCn1c(=S)[nH]c2cc(C(=O)N3CCCC(C(=O)OCC)C3)ccc2c1=O (centres unmarked) | 13.5% |

| SMILES | hERG current change (%, negative = inhibition) at 1uM |
| --- | --- |
| COc1ccc2c(c1)[C@H]1[C@H](CO2)[C@H](c2ccccc2)[C@]2(C)C(=O)N[C@@H](C)C(=O)N12 | 16.8% |
| CCOC(=O)[C@H]1[C@H]2COc3ccc(Br)cc3[C@@H]2N2C(=O)CN(Cc3ccco3)C(=O)[C@@]12C | 1.87% |
| O=C(c1ccc(Nc2cccc(C(F)(F)F)c2)nc1)N1CCCC1 | -3.64% |
| O=C1CSC(=S)N1/N=C/c1cc(Br)c(O)c(Br)c1 | 15.6% |
| O=C(Nc1cccnc1)c1ccc(NC(=O)c2ccco2)cc1 | 14.2% |
| Cc1ccccc1OCCCn1cc(C(=O)C(=O)N2CCOCC2)c2ccccc21 | 2.01% |
| O=C(c1noc2c1CCCC2)N1CCC(CO)(Cc2ccccc2Cl)CC1 | 14.5% |
| Cc1ccc(S(=O)(=O)Nc2ccncc2)c(C)c1N(C)S(=O)(=O)c1ccc(Cl)cc1 | 7.71% |
| C#CCOc1ccc(/C=C2/C(=O)NN(c3ccc(F)cc3)C2=O)cc1OC | 9.35% |
| Cc1ccc(NC(=O)CN2C(=O)C3C4C=CC(C4)C3C2=O)cc1 (centres unmarked) | 11.7% |
| O=c1cccc2n1Cc1cc3ccccc3nc1-2 | 11.2% |
| Cc1ccc(C(C)C)c(OCCN(C)C)c1.O=C(O)C(=O)O | 0.147% |
| Cc1cc(C(=O)CCl)c(C)n1CCc1ccccc1 | 11.5% |
| O=C(Nc1ccc(N2CCOCC2)cc1)Nc1ccc(Cl)c(Cl)c1 | 17.2% |
| CS(=O)(=O)N1CCCC(C(=O)Nc2ccc(F)cc2F)C1 (centres unmarked) | 17.9% |
| CC12CCC(=O)N1C(C(=O)Nc1cccc(S(=O)(=O)N3CCCCC3)c1)CS2 (centres unmarked) | -21% |
| CC(C)(C)c1ccc(C(=O)Nn2c(CCC(=O)O)ccc2-c2cccs2)cc1 | -6.03% |
| O=C(Cn1nc(-c2ccc(N3CCOCC3)c([N+](=O)[O-])c2)c2ccccc2c1=O)N1CCCCC1 | -6.5% |
| CCCCN(C(=O)CCSc1ccc(F)cc1)c1c(N)n(Cc2ccccc2)c(=O)[nH]c1=O | 7.09% |
| C=CCN1C(=O)/C(=C\C(C)=C\c2ccccc2)SC1=S | 9.01% |
| Cc1ccc(/C=C2/Sc3ccc(C(=O)N4CCN(c5ccccn5)CC4)cc3NC2=O)cc1 | 6.37% |
| Cn1c(CSc2ncccn2)nnc1SCC(=O)N1CCCc2ccccc21 | 7.46% |
